# Experimental data reported in publication PMC4336329 (PLoS ONE, 2015).
# Screen size: about 310,000 compounds; about 14,000 (4.5%) showed an effect of 50% or more. The effect is printed as a negative number. This is one part of the list.
# Target: human ether-à-go-go-related gene (hERG) potassium channel (human, UniProt Q12809)
# Experiment: primary screen, population patch clamp on CHO cells stably expressing hERG
# 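Also: peak tail current of the secondary pulse compared with the same well before compound.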
# human ether-à-go-go-related gene (hERG) potassium channel, sequence (Q12809 whole entry, looked up): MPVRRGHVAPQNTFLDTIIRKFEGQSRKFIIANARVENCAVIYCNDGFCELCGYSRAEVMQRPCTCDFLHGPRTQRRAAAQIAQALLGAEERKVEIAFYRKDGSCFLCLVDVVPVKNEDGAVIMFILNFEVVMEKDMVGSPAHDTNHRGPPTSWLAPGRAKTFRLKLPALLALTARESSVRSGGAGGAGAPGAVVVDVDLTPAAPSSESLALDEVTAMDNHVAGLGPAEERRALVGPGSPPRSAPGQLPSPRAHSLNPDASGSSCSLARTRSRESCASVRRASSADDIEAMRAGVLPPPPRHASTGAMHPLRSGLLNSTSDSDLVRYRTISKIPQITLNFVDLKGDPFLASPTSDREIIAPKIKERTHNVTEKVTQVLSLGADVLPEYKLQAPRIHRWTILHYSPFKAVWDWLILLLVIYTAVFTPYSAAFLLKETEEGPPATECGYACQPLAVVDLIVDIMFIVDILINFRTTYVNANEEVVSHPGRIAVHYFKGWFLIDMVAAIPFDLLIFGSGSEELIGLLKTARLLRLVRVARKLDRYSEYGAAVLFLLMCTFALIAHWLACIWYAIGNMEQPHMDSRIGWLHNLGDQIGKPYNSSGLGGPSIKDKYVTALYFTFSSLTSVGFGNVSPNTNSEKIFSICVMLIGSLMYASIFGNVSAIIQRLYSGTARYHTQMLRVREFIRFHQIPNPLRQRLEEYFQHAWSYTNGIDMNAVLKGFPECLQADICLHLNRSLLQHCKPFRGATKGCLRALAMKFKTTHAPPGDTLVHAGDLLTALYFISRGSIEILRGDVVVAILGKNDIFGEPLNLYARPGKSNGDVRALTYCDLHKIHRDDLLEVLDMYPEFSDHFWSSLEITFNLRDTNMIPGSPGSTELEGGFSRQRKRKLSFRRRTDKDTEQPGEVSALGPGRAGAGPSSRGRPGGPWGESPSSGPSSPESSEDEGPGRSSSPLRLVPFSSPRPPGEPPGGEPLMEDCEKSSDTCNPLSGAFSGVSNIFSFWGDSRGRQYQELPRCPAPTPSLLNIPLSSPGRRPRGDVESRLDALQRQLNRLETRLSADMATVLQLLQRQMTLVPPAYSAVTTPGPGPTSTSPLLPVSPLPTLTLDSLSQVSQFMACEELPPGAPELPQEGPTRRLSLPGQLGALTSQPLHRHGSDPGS
row,SMILES,"hERG current change (%, negative = inhibition) at 10uM [%]"
1,CC(NC(=O)CCSCc1ccccc1F)c1ccccc1 (centres unmarked),5.91
2,CCOC(=O)N/N=C(C)/C=C/c1ccco1,15
3,Cc1cc(C)n(CCOc2nonc2N)n1,3.25
4,CCN1CCN(C(=O)CN(C)S(=O)(=O)c2ccc3ccccc3c2)CC1,3.38
5,CCCCn1c(N)c(N(CCOC)C(=O)CN(C)S(=O)(=O)c2ccc(Cl)cc2)c(=O)[nH]c1=O,22.3
6,O=C(CNC(=O)c1cccs1)OCC(=O)c1ccccc1,8.55
7,Cc1cc(C)cc(OC(C)C(=O)Nc2ccccc2C(=O)NCc2cccnc2)c1 (centres unmarked),-5.28
8,CC(CCc1ccccc1)NC(=O)CN1CCSc2ccccc21 (centres unmarked),15.1
9,CC(=O)Nc1cccc(NC(=O)C2CCN(C(=O)c3ccco3)CC2)c1,21.8
10,CSCCNC(C)=O,11.1
11,C=CCn1c(=O)c2ccccc2n2c(SCC(=O)Nc3sc(C)c(CC)c3C(=O)OCC)nnc12,6.96
12,COC(=O)c1ccc(COC(=O)c2[nH]c(C)c(C(C)=O)c2C)o1,21.6
13,CC1(C)C2([N+](=O)[O-])CNCC1([N+](=O)[O-])CNC2,4.33
14,Cc1nc(-c2ccc(Cl)cc2)sc1C1(C)CC(c2cccc(F)c2)=NO1 (centres unmarked),13.4
15,O=C(OC(C(=O)NCC1CCCO1)c1ccc(F)cc1)c1cccs1 (centres unmarked),-7.96
16,Cc1cc(=O)[nH]c(N/N=C/c2ccco2)n1,13.9
17,O=C(COC(=O)c1n[nH]c2ccccc12)NC(=O)NC12CC3CC(CC(C3)C1)C2,0.441
18,Cc1cccc(C)c1NC(=O)c1c(C)nn(-c2ccccc2)c1Cl,-17.3
19,CCOC(=O)C1=C(C)OC(N)=C(C#N)C1c1ccc(C)o1 (centres unmarked),2.2
20,NS(=O)(=O)c1ccc(CCNS(=O)(=O)c2ccc(Cl)nc2)cc1,9.73
21,Cc1ccc(O)c(NC(=O)c2cc(-c3ccccc3Cl)on2)c1,20.3
22,COC(=O)c1c[nH]n2c(=O)c(Cl)c(C)nc12,13.5

row,SMILES,"hERG current change (%, negative = inhibition) at 10uM [%]"
1,O=C(Nc1ccc(Cl)cc1)Nc1ccc(-c2cnco2)cc1,11.1
2,Cc1ccc(NC(=O)COc2cccnc2[N+](=O)[O-])cc1S(=O)(=O)N1CCCCC1,-1.88
3,CC(=O)Nc1cccc(C(=O)OC(C)C(=O)NC2CCCc3ccccc32)c1 (centres unmarked),4.5
4,O=C(c1ccc(Cn2c(=S)[nH]c3ccccc3c2=O)cc1)N1CCN(c2ccccn2)CC1,8.99
5,COc1ccc(C2C3=C(Nc4ncnn42)c2ccccc2CC3)cc1OC (centres unmarked),0.84
6,Cc1ccc(NC(=O)c2ccco2)c([N+](=O)[O-])c1,8.13
7,COC(=O)c1ccc(-c2sc3nc(N4CCOCC4)c4c(c3c2N)CC(C)(C)OC4)o1,-3.26
8,C=COC(=O)CSc1nc(-c2cccs2)ccc1C#N,15.3
9,COCC(C)n1c(C)cc(C(=O)COC(=O)c2oc3ccccc3c2C)c1C (centres unmarked),-19.6
10,O=C(O)c1cc(NCc2ccc(F)cc2)ccc1N1CCOCC1,-5.19
11,CCOC(=O)C1CCN(Cc2ccc(C(=O)OC)cc2)CC1,-14.6
12,CN=C1c2ccccc2CN1c1cccc(C(=O)OC)c1,-13.8
13,Cc1sc2nc(CN(C(=O)NC3CCCCC3)C3CCCCC3)[nH]c(=O)c2c1C,-11.2
14,COc1ccc(-c2csc(Cc3nc(O)cs3)n2)cc1,23
15,O=C1NCCCc2nc(Oc3ccccc3)sc21,0.239
16,O=C(O)CSc1nnc(Cc2ccccc2)n1-c1ccccc1,5.74
17,CCOC(=O)c1ccc(NC(=O)C2CCN(C(=O)c3ccc(OC)c(OC)c3)CC2)cc1,-58.7
18,COc1cc(OC)cc(-c2c(C#Cc3ccsc3)c3cc(-c4ccc5cc[nH]c5c4)ccc3n2C)c1,11.6
19,Cc1nc(CCNC(=O)C2CCC(=O)N(CCc3cccc(F)c3)C2)sc1C (centres unmarked),7.45
20,Cc1ccc2nc3c(cc2c1)c(NS(=O)(=O)c1ccccc1)nn3CC(C)C,-1.67
21,O=C(O)CC(C(=O)O)N1C(=O)/C(=C/C=C/c2ccco2)SC1=S (centres unmarked),13.2
22,Fc1ccc(-c2csc3ncnc(Cl)c23)cc1,-4.31
